Experimental data from PMC4359148.
No constants are given. Whether binding was seen depends on the method and setting. Some results given as binding are weak or reduced against the parent protein; the word gives no strength. Where a sequence is shown, tags or fusion partners need not be part of it.

Chains of the proteins cited; added tags and fusions are not shown.
UniProt Q9LN01: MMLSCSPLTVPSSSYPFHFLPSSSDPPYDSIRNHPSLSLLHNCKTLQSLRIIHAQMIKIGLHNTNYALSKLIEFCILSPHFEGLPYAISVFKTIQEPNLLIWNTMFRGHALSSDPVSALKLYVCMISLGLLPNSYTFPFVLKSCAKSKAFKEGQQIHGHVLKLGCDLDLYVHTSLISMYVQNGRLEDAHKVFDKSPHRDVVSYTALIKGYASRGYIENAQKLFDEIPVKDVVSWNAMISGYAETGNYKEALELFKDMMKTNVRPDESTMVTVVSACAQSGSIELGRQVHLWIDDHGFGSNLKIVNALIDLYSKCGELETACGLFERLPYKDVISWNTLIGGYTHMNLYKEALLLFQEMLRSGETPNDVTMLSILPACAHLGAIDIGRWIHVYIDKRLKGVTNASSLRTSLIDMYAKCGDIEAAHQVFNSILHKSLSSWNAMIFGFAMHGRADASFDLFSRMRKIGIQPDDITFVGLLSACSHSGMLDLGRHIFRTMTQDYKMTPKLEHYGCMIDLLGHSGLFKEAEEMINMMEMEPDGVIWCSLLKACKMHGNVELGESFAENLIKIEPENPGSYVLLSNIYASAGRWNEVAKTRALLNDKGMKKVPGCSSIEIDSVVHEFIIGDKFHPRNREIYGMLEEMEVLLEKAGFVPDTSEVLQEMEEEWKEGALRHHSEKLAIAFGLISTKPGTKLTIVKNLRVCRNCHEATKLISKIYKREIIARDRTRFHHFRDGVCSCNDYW

What was measured:
Test in all cases: two-hybrid; Gal4 AD/BD fusions (pGADT7GW, pGBKT7GW) in yeast PJ69-4, double transformants by mating; growth on -Leu -Trp -His -Ade plates, 3 days at 30°C
[1] = biological target: T1, OZ1, mature (without the predicted 33 aa transit peptide), yeast two-hybrid fusion (A. thaliana) (UniProt Q8S9K3)
T1 sequence: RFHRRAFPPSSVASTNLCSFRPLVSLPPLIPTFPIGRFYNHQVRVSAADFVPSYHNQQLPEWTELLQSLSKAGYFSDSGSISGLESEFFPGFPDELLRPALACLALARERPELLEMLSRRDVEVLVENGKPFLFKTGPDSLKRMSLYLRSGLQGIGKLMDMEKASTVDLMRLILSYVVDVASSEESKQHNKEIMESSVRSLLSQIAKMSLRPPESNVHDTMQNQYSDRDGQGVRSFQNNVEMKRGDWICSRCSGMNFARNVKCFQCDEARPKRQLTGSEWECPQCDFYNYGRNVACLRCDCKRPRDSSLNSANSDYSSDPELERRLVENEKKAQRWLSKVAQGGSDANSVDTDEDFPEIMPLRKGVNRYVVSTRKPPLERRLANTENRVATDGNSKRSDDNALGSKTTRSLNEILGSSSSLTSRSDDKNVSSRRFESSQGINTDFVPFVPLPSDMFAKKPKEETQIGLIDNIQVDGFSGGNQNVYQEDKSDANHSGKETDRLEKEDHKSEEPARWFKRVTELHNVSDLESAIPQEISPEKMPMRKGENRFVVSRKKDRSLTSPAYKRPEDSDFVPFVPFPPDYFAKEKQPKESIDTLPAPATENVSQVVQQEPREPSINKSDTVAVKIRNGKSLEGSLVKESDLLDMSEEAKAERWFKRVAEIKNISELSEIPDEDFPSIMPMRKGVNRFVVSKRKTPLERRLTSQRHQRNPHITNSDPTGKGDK

[2] = biological target: T2, RIP1 (RIP/MORF family editing factor), yeast two-hybrid fusion (Arabidopsis thaliana) (UniProt Q9LKA5)
T2 sequence: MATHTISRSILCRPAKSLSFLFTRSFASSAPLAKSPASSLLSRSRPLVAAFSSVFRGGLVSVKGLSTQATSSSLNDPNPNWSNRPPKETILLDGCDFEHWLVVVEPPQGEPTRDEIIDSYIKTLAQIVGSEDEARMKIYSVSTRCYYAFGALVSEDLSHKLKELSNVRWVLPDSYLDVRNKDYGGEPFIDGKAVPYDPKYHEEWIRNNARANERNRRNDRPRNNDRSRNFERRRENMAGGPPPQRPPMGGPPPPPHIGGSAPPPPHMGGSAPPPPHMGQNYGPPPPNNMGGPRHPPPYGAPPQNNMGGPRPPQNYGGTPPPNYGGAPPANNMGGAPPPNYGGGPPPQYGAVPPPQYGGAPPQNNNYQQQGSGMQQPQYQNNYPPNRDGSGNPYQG

[3] = biological target: T3, RIP2, mature, yeast two-hybrid fusion (A. thaliana) (UniProt O22793)
T3 sequence: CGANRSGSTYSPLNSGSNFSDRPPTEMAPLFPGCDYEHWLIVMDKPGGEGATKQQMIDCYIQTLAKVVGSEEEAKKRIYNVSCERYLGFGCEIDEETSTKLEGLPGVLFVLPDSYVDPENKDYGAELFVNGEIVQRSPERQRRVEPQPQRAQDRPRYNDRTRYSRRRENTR

[4] = biological target: T4, CRR28 (PPR site recognition factor), yeast two-hybrid fusion (Arabidopsis thaliana) (UniProt Q0WQW5)
T4 sequence: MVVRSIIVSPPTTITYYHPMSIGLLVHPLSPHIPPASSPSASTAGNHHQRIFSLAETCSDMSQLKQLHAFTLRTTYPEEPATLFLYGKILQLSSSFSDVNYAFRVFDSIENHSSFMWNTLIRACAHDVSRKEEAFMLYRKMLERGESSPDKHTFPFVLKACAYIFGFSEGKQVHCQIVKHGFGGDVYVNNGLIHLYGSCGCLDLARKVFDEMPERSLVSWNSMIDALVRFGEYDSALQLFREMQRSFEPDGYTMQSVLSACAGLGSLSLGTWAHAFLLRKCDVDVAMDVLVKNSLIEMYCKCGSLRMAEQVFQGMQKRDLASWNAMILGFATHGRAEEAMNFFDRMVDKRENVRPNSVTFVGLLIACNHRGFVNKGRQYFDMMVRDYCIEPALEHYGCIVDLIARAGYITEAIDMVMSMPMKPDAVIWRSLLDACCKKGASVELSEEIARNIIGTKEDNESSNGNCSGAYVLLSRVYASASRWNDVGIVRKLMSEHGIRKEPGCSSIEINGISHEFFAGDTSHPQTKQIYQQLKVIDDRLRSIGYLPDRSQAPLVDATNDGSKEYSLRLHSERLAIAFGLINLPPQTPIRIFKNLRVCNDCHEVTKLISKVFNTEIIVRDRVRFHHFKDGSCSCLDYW

[5] = biological target: T5, ORRM1, mature (without the predicted transit peptide), yeast two-hybrid fusion (Arabidopsis thaliana) (UniProt Q8L440)
T5 sequence: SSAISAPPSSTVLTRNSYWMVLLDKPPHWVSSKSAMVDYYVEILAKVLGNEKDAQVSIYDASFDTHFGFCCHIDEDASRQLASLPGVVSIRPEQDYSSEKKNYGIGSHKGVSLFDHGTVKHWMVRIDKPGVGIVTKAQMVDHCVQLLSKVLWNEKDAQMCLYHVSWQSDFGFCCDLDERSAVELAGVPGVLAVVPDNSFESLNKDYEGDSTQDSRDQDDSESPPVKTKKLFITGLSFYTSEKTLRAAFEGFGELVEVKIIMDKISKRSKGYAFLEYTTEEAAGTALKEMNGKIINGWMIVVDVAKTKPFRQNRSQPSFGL

[6] = biological target: OTP82 (PPR site recognition factor), yeast two-hybrid fusion (Arabidopsis thaliana) (UniProt Q9LN01)
[7] = biological target: T6, RIP9, mature, yeast two-hybrid fusion (A. thaliana) (UniProt Q9LPZ1)
T6 sequence: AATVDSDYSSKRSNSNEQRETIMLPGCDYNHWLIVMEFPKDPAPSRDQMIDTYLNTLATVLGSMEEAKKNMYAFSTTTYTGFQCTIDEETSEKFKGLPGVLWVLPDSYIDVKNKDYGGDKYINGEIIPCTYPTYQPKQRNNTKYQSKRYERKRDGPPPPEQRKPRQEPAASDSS

B1: ORRM1, mature (without the predicted transit peptide), yeast two-hybrid fusion (protein, UniProt Q8L440 55-374)
chain: T5 sequence
- binding [1]: binds
- binding [2]: binds
- binding [3]: binds

B2: OZ1, mature (without the predicted 33 aa transit peptide), yeast two-hybrid fusion (protein, UniProt Q8S9K3 34-758)
chain: T1 sequence
- binding [4]: binds
- binding [5]: binds
- binding [6]: binds
- binding [1]: binds
- binding [2]: binds weakly
- binding [3]: no binding
- binding [7]: no binding

B3: nORRM1: amino acids 55-274 of ORRM1, which contains the RIP-RIP domain (domain or fragment, UniProt Q8L440 55-274)
chain: SSAISAPPSSTVLTRNSYWMVLLDKPPHWVSSKSAMVDYYVEILAKVLGNEKDAQVSIYDASFDTHFGFCCHIDEDASRQLASLPGVVSIRPEQDYSSEKKNYGIGSHKGVSLFDHGTVKHWMVRIDKPGVGIVTKAQMVDHCVQLLSKVLWNEKDAQMCLYHVSWQSDFGFCCDLDERSAVELAGVPGVLAVVPDNSFESLNKDYEGDSTQDSRDQDDS
- binding [1]: binds

B4: cORRM1: amino acids 275-374 of ORRM1, which contains the RRM domain (domain or fragment, UniProt Q8L440 275-374)
chain: ESPPVKTKKLFITGLSFYTSEKTLRAAFEGFGELVEVKIIMDKISKRSKGYAFLEYTTEEAAGTALKEMNGKIINGWMIVVDVAKTKPFRQNRSQPSFGL
- binding [1]: no binding
